Positions count from the first letter of the chain named.
B1: ANTI-HUMAN ENTPD2 MAB9 (antibody)
heavy: QVQLVQSGAEVKKPGSSVKVSCKASGGTFDSYAVSWVRQAPGQGLEWMGRIVPWLGHTQYAQKFQGRVTITADESTSTAYMELSSLRSEDTAVYYCARESPGYRYSFDVWDQGTLVTVSSASTKGPSVFPLAPSSKSTSGGTAALGCLVKDYFPEPVTVSWNSGALTSGVHTFPAVLQSSGLYSLSSVVTVPSSSLGTQTYICNVNHKPSNTKVDKRV[left out - human IgG1 Fc]
light: SYELTQPLSVSVALGQTARITCSGDAIGEKYVYWYQQKPGQAPVLVIYDDNNRPSGIPERFSGSNSGNTATLTISRAQAGDEADYYCASYDLQQARWVFGGGTKLTVLGQPKAAPSVTLFPPSSEELQANKATLVCLISDFYPGAVTVAWKADSSPVKAGVETTTPSKQSNNKYAASSYLSLTPEQWKSHRSYSCQVTHEGSTVEKTVAPTECS
B2: ANTI-HUMAN ENTPD2 MAB10 (antibody)
heavy: B1 heavy with H57F, Q59R
light: B1 light
B3: ANTI-HUMAN ENTPD2 MAB3 (antibody)
heavy: QVQLVQSGAEVVKPGASVKISCKASGYTFTDYNMDWVKQAPGQRLEWIGDINPKYDISTYNQQFKGKATITVDTSASTAYMELSSLRSEDTAVYYCARRGFFLYYGINYYYFDVWGQGTLVTVSSASTKGPSVFPLAPSSKSTSGGTAALGCLVKDYFPEPVTVSWNSGALTSGVHTFPAVLQSSGLYSLSSVVTVPSSSLGTQTYICNVNHKPSNTKVDKRV[left out - human IgG1 Fc]
light: EIVLTQSPATLSASPGERITLSCSASSSVSYIHWYQQKPGQAPRLLIYSTSNLASGIPARFSGSGSGTFYTLTISSVEPEDAAVYYCHQWSSYPWTFGGGTKLEIKRTVAAPSVFIFPPSDEQLKSGTASVVCLLNNFYPREAKVQWKVDNALQSGNSQESVTEQDSKDSTYSLSSTLTLSKADYEKHKVYACEVTHQGLSSPVTKSFNRGEC
B4: ANTI-HUMAN ENTPD2 MAB7 (antibody)
heavy: B3 heavy with T74K
light: B3 light with R18E
B5: ANTI-HUMAN ENTPD2 MAB2 (antibody)
heavy: B3 heavy with T74K
light: B3 light
B6: ANTI-HUMAN ENTPD2 MAB8 (antibody)
heavy: QVQLQQSGPGLVKPSQTLSLTCAISGDSVSSSSAAWNWIRQSPSRGLEWLGRIYYRSKWYNDYAVSVKSRITINPDTSKNQFSLQLNSVTPEDTAVYYCARGSYVTSSYEGFDYWGQGTLVTVSSASTKGPSVFPLAPSSKSTSGGTAALGCLVKDYFPEPVTVSWNSGALTSGVHTFPAVLQSSGLYSLSSVVTVPSSSLGTQTYICNVNHKPSNTKVDKRV[left out - human IgG1 Fc]
light: SYELTQPLSVSVALGQTARITCSGDNLPEKYAYWYQQKPGQAPVLVIYDDNKRPSGIPERFSGSNSGNTATLTISRAQAGDEADYYCQSYGKWGWTWVFGGGTKLTVLGQPKAAPSVTLFPPSSEELQANKATLVCLISDFYPGAVTVAWKADSSPVKAGVETTTPSKQSNNKYAASSYLSLTPEQWKSHRSYSCQVTHEGSTVEKTVAPTECS
B7: mAb19: anti-human ENTPD2 antibody; probably heavy chain SEQ ID NO: 252, light chain SEQ ID NO: 259 (antibody)
heavy: EVQLQQFGAELVKPGTSVKISCKASGYTFTDYNMDWVKQSHGKSLEWIGDINPNYDITTYNQRFKGKATLTVDKSSSTAYMELRSLTSEDTAVYYCARRGFFPYYGNSYYYFDVWGAGTTVTVSSASTKGPSVFPLAPSSKSTSGGTAALGCLVKDYFPEPVTVSWNSGALTSGVHTFPAVLQSSGLYSLSSVVTVPSSSLGTQTYICNVNHKPSNTKVDKRV[left out - human IgG1 Fc]
light: QIVLTQSPTIMSASLGEEITLTCSASSSVSYMHWYQQKSGTSPKLLIYSTSNLASGVPSRFSGSGSGTFYSLTISSVEAEDAADYYCHQWSNYPWTFGGGTKLEIKRTVAAPSVFIFPPSDEQLKSGTASVVCLLNNFYPREAKVQWKVDNALQSGNSQESVTEQDSKDSTYSLSSTLTLSKADYEKHKVYACEVTHQGLSSPVTKSFNRGEC
B8: mAb21: anti-human ENTPD2 antibody; probably heavy chain SEQ ID NO: 283, light chain SEQ ID NO: 289 (antibody)
heavy: EVQLQQSGPELVKPGASVKISCKTSGYTFTEYTMHWVKQSHGKSLEWIGGINPNNGITTYNQKFKGKATLTVDKSSSTAYMDLRSLTSEGSAVYYCARRGFPIYYYGTSLYYFDYWGQGTTLTVSSASTKGPSVFPLAPSSKSTSGGTAALGCLVKDYFPEPVTVSWNSGALTSGVHTFPAVLQSSGLYSLSSVVTVPSSSLGTQTYICNVNHKPSNTKVDKRV[left out - human IgG1 Fc]
light: B7 light with T9A, K38R, S49T, N92S

molecular target: T1, Human ENTPD1 (NP_001767) expressing NIH/3T3 cells (Homo sapiens, UniProt P49961); experiment: Cross reactivity: FACS binding to human ENTPD1 expressing NIH/3T3 cells; conditions: 50 nM antibody
T1 construct: expressed in transfected cells; host or cells: NIH/3T3 (retroviral transduction, FACS-sorted)
T1 sequence (P49961 1-510): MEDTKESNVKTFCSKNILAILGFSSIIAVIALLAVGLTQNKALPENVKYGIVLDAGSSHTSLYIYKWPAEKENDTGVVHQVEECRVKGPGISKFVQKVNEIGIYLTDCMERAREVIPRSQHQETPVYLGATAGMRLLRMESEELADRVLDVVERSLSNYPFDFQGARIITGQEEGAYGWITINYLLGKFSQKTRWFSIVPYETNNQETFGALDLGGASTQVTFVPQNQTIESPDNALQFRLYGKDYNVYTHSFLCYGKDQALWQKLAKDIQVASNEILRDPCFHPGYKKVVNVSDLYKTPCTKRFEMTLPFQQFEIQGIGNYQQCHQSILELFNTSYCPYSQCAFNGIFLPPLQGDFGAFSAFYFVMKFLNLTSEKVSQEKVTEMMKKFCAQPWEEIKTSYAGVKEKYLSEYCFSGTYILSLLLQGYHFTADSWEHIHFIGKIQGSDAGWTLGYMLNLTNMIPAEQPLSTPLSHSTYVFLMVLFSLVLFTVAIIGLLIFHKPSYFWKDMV
Description: (§1) FACS screening: Specific binding of candidate antibodies to endogenously expressed ENTPD2 was assessed by flow cytometry. Cells were rinsed thoroughly with 1× PBS and treated with Accutase (Millipore #SCR005) to lift from growth plates and resuspended at approximately 1×10^5 cells/90 μL in 1× FACS buffer (2% FBS +0.1% NaN3 in PBS). In a 96-well U-bottom plate, 10 μL of 10× antibody solution in FACS buffer was pre-seeded and 90 μL of cell suspension was added. Cell were incubated for 30 minutes at 4° C., washed 1× with cold PBS and resuspended in 100 μL of 1:500 secondary antibody 1× FACS buffer (Allophycocyanin conjugated F(ab′)2 goat anti-human IgG, Fcγ specific; Jackson Immunoresearch, Cat# 109-136-098). After additional incubation for 15 min at 4° C., cells were washed twice with PBS and resuspended in 100 μL of 1× FACS buffer with 4 μg/mL propidium iodide (Life Technologies, Cat# P3566). Geometric mean fluorescence intensity was calculated on live single cells using FlowJo software.
(§2) Cross reactivity Human ENTPD1 (NP_001767) expressing NIH/3T3 cells were generated using a retroviral transduction approach. 72hrs post transduction, engineered cells were stained with the anti-Human CD39/ENTPD1 APC-conjugated Antibody (R&D systems, Minneapolis, Minn.) and live cells that expressed human ENTPD1 were separated from the rest of the population via fluorescence activated cell sorting. Stable expression of ENTPD1 was periodically re-confirmed by FACS with the above described anti-Human CD39/ENTPD1 APC-conjugated Antibody (1:100).

Row | Molecule | Apparent FACS binding at 50 nM, NIH/3T3 - ENTPD1
1 | B1 | No binding
2 | B2 | No binding
3 | B3 | No binding
4 | B4 | No binding
5 | B5 | No binding

same assay, conditions: read-out: Apparent FACS binding, NIH/3T3 - ENTPD1 (value printed in nM)

Row | Molecule | EC50
6 | B6 | > 100 nM

system: H520 cells; experiment: Cross reactivity: FACS binding to H520 cells (ENTPD3 and ENTPD8 expression); set-up: species or system human; conditions: 50 nM antibody
Description: as §1
H520 cells were identified as a cancer cell line with ENTPD3 (Ct 25) and ENTPD8 (Ct 26) expression by Taqman and were used for selectivity screening.

Row | Molecule | Apparent FACS binding at 50 nM, H520 Cells
7 | B1 | No binding
8 | B2 | No binding
9 | B6 | No binding
10 | B3 | No binding
11 | B4 | No binding
12 | B5 | No binding

molecular target: T2, recombinant human ENTPD2 (residues 29-462) (Homo sapiens, UniProt Q9Y5L3); experiment: Biochemical human ENTPD2 functional assay (Transcreener ADP2 TR-FRET); conditions: not given
T2 construct: residues 29-462 of human or cyno ENTPD2; GP67 signal peptide (N); made in house; host or cells: High Five (Trichoplusia ni) insect cells, baculovirus
T2 sequence (Q9Y5L3 29-462): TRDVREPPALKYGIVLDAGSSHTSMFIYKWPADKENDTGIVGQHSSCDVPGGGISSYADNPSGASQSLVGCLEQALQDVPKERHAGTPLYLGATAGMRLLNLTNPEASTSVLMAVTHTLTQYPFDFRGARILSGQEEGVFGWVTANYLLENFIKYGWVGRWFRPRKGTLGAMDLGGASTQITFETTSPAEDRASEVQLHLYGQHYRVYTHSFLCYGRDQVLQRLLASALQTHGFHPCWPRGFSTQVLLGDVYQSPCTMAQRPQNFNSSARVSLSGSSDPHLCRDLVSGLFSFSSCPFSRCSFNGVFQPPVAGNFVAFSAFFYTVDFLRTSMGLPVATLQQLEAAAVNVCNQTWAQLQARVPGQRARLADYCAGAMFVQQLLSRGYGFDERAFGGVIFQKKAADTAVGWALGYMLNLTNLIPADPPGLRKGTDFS

Row | Molecule | inhibition of the catalytic activity of recombinant human ENTPD2
13 | B7 | potently inhibit
14 | B8 | potently inhibit

system: NIH/3T3 cells; experiment: Cross reactivity: FACS binding to parental NIH/3T3 control cells; conditions: 50 nM antibody
Description: as §1, §2

Row | Molecule | Apparent FACS binding at 50 nM, NIH/3T3 cells
15 | B1 | No binding
16 | B2 | No binding
17 | B6 | No binding
18 | B3 | No binding
19 | B4 | No binding
20 | B5 | No binding

— patent US20220340685A1, “COMBINATION THERAPY WITH ENTPD2 AND CD73 ANTIBODIES” (Novartis AG, priority 2019, published 2022)
